In the supplement of paper PMC3334620:
In all, about 33,000 sequences were measured (“E-score (-0.5 to 0.5)”: median about -0.043, highest 2% from about 0.37 on). The list shows a part of the results.

Molecular target: T1, Upc2 (UniProt Q12151)
T1 sequence: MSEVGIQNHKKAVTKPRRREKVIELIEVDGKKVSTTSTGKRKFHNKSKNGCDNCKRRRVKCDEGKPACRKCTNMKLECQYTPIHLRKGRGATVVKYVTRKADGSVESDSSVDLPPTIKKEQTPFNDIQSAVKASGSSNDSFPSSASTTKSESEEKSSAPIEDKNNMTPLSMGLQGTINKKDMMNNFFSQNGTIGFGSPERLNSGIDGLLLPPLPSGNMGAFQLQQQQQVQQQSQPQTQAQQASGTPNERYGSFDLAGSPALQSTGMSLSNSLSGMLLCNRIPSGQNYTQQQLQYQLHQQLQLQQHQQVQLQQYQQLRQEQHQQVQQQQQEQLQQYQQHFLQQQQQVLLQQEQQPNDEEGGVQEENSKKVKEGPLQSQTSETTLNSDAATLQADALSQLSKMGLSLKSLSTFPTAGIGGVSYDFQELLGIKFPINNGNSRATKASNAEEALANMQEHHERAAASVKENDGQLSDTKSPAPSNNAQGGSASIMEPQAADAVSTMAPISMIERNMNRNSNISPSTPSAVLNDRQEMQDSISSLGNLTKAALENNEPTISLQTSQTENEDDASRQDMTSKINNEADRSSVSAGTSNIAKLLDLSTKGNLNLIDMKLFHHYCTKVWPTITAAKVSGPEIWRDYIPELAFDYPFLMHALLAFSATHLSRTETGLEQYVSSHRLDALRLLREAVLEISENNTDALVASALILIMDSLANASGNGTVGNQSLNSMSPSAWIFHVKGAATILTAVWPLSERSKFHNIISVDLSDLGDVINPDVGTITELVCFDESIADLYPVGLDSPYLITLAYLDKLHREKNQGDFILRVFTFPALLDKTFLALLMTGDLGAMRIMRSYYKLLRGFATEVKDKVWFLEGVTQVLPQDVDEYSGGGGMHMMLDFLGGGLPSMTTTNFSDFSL
Experiment: PBM E-score (8-mer binding enrichment) (E-score (-0.5 to 0.5)); higher = stronger / more preferred TF binding; most listed sequences are background and not binding sites
Settings: protein concentration: 200 nM; construct: GST-full length
Method in brief: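 Bound GST-tagged yeast transcription factors, applied at about 100-200 nM to double-stranded universal all-10-mer Agilent arrays, were detected with fluorescent anti-GST. Scans were normalised with masliner. A modified Wilcoxon-Mann-Whitney statistic, the E-score, was assigned to each ungapped eight-base word pooled with its reverse complement by the Universal PBM Analysis Suite.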

| Sequence | PBM E-score |
| --- | --- |
| AGTGCCCG | -0.0912 |
| CTGCGCTC | -0.153 |
| ACGCGTCT | 0.0516 |
| GACGTCAA | 0.0563 |
| AGATTTTC | -0.0873 |
| CGTCAGAC | -0.148 |
| AACGGCGC | 0.219 |
| GTCTTTTA | 0.205 |
| CGTCCGAA | -0.0113 |
| CACGGCAG | -0.00161 |
| AACGTAAA | 0.25 |
| ATGATGTG | -0.14 |
| ATAGGTCC | -0.132 |
| GCTTTTAC | 0.246 |
| GTGAACGA | 0.453 |
| CACGAGAA | 0.0693 |
| GCGGTTAA | 0.0132 |
| GACCTAGC | -0.115 |
| CTCGTGAA | 0.185 |
| CCATCGGA | 0.05 |
| ATTGATGC | 0.0479 |
| GCATAACA | 0.0119 |
| CGATCGAG | 0.121 |
| AGAGGCCG | -0.105 |
| ATATAAAA | -0.0137 |

| Sequence | PBM E-score |
| --- | --- |
| CCGGCACA | -0.18 |
| ACGGTTTA | 0.0939 |
| ACTTATCT | -0.106 |
| CGAGACAC | -0.0291 |
| GTTGTTTA | 0.0127 |
| AGGCCAAC | 0.0461 |
| CTGAATCA | -0.241 |
| GCATGGAC | -0.202 |
| CAGACCGG | -0.0907 |
| GCGGCCGC | 0.0128 |
| ACGAAGTC | 0.298 |
| ACACTCAT | -0.233 |
| CCCTAATC | -0.0172 |
| CATGCCCA | -0.146 |
| ACGAAAGG | 0.32 |
| CAACGACG | 0.296 |
| AGCGTGTG | -0.0415 |
| ACTCTAGA | -0.0372 |
| ATCTTGGA | -0.128 |
| AATCGGCA | -0.133 |
| CAAAAGAG | -0.0542 |
| GGCAGTGA | -0.313 |
| AAAAGTTA | 0.0517 |
| ACTTTCGA | 0.0303 |
| GCGTACGC | 0.281 |

| Sequence | PBM E-score |
| --- | --- |
| GGGCAGAC | -0.215 |
| CACCGGCC | -0.0276 |
| CTCACTGA | -0.29 |
| CTCCGGAA | -0.107 |
| GACTACGC | -0.0586 |
| ACTATCCG | 0.211 |
| ATATTTGG | -0.0511 |
| CGATGGAC | 0.186 |
| AATTCAAC | -0.0242 |
| ATAACAAG | -0.044 |
| AAAGGTAA | 0.132 |
| CCTACAGG | -0.0609 |
| TCTTTCCA | -0.151 |
| CCAGCCCG | -0.21 |
| CCCTTAGC | -0.209 |
| CGTTAAAC | 0.411 |
| CACTAAAA | 0.0777 |
| TATGATCA | 0.0786 |
| AGAGGTAA | 0.134 |
| GATCCGAA | 0.146 |
| ATGGAACA | -0.303 |
| AGGGAAAC | -0.0321 |
| GGCCGCAC | -0.246 |
| GATGTAAA | 0.169 |
| TCGTAACA | 0.404 |

| Sequence | PBM E-score |
| --- | --- |
| AATCCCGT | 0.111 |
| GGAAAAGA | -0.11 |
| ATTACGGA | 0.185 |
| AGGATCTA | -0.116 |
| AAGATCGG | -0.0541 |
| GCGGTAAC | 0.0815 |
| AAAACGTG | 0.00865 |
| GCCGCGCA | -0.167 |
| ACTCAGGA | -0.162 |
| CCTATGGC | -0.195 |
| AAACGGTC | 0.344 |
| AGAATGGG | -0.208 |
| GGCCGAAA | -0.0925 |
| CTCCTTGC | -0.0057 |
| AACGAAGA | 0.424 |
| CCTAGTTC | -0.11 |
| CAATGCGG | -0.205 |
| AAGTATAG | 0.0267 |
| CACTAGGG | -0.346 |
| GGACACAC | -0.122 |
| AGTACAAC | -0.0045 |
| ACTCAGGG | -0.091 |
| CGAGCGCG | 0.188 |
| CACACCAA | 0.054 |
| GCCACCAA | -0.0957 |

| Sequence | PBM E-score |
| --- | --- |
| ATGTCATA | -0.0145 |
| GTTCTAGA | 0.00744 |
| CTGCTCCA | -0.215 |
| AGCTTTTG | 0.0424 |
| TCGTCGAA | -0.0136 |
| ACTCGTCG | 0.2 |
| TATTTTCA | 0.0629 |
| TCTGGGAA | 0.0669 |
| AGCTACCT | -0.161 |
| ATTGCGAG | 0.16 |
| AATCGACA | 0.142 |
| GGTCTCCA | -0.235 |
| GAGTCTTA | -0.0154 |
| AATTACGA | 0.341 |
| CCTTGACG | -0.219 |
| AGGTGGCC | -0.0807 |
| CACAAGGG | -0.253 |
| ACACAGGT | -0.112 |
| ATAAGTAG | -0.138 |
| AGTGGGAC | -0.0952 |
| ATGCGAAA | 0.204 |
| CTTATCTA | 0.0609 |
| CCTTCCAG | -0.259 |
| GGCCCGCA | -0.103 |
| AGATGCCA | -0.132 |

| Sequence | PBM E-score |
| --- | --- |
| AATGAAGA | -0.00976 |
| AGAGCGTG | 0.0116 |
| CCATGACC | -0.0468 |
| AGCCGCGC | -0.211 |
| AGGTCGGA | -0.126 |
| TGCTTAAA | 0.0684 |
| GCCCTTCA | -0.144 |
| CATGTATC | -0.00115 |
| CCAACGGG | -0.0966 |
| CGGTATCA | 0.0895 |
| GACGTCCC | -0.0634 |
| AGAACATG | -0.00034 |
| CGGCTGCC | -0.0671 |
| AGGATGTG | -0.212 |
| ACGGGCCG | 0.226 |
| TCCAGTCA | -0.258 |
| GATTTAGC | 0.101 |
| TAAACCAA | 0.0347 |
| ATTTACTC | -0.0904 |
| AGCGTAAT | -0.0565 |
| GATTGCCA | -0.0898 |
| AACCAAAT | -0.00887 |
| CTGCGTTA | -0.046 |
| GCATGACA | -0.149 |
| CTTCGGCC | -0.198 |

| Sequence | PBM E-score |
| --- | --- |
| ATAGACAT | -0.151 |
| GGAGACCC | -0.241 |
| GGCTGTGA | -0.125 |
| GAGCAACC | 0.0353 |
| ATTAGACG | -0.0483 |
| ATTGAATA | 0.0931 |
| CGAACGGC | 0.291 |
| ATTATGAG | -0.102 |
| ATCCACAG | -0.262 |
| AGTAGGGG | -0.2 |
| AGTCTTCA | -0.285 |
| AAAGTTGT | 0.075 |
| AACGAGGC | 0.444 |
| TCGTGACA | -0.00407 |
| CCCCCGGG | -0.0962 |
| GGAGCAGA | -0.203 |
| AGAAGGTC | -0.217 |
| GAGGTGGA | -0.297 |
| GCCGAGGA | 0.0753 |
| ACCGAAGG | 0.0458 |
| AGAAGTAT | 0.0151 |
| CGCGTAGA | 0.165 |
